From PubChem BioAssay AID686978 (National Center for Advancing Translational Sciences (NCATS), 2013)
Among all 420,000 compounds or so, about 64,000 (15%) were called active. This list was built around the results that the source calls inconclusive (neither active nor inactive); the mix of calls is not that of the screen. The call rests on the fitted dose curve; in most records, active means well fitted inhibition curve with a large enough effect; inconclusive means small, poorly fitted or top-dose-only effect; inactive means flat fitted curve, though single readings scatter. Potencies of inconclusive entries are left out as doubtful fits.

experiment: qHTS for Inhibitors of human tyrosyl-DNA phosphodiesterase 1 (TDP1): qHTS in cells in absence of CPT; conditions: DT40 Tdp1-/- hTDP1 cells, no CPT, ATP luminescence, 48 h; activity change, negative = growth inhibition: at 46.2 µM (top of the series) unless noted; further: nearly all actives have a fitted effect of over 55% in size
Outline: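 A cellular qHTS used chicken DT40 cells lacking endogenous Tdp1 but carrying stably transfected human TDP1. Compounds were applied without camptothecin, and cell growth kinetics were judged by ATP-dependent luminescence after ≥48 hr.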
On the % scale 0 is the no-effect control and ±100 the full control effect; potency means the concentration at half of the fitted maximal effect; tags describe the fitted curve by direction and shape.

Row | Compound | Potency | activity change, negative = growth inhibition
1 | COc1ccc(C(=O)CSc2nc(C)cc(C)n2)cc1C | inconclusive [inhibitor, single point] | –
2 | CC[N+](C)(CC)CC(=O)OCC1C(C)C=C(C)CC1C (configuration not stated) | active: 8.2 µM | –
3 | CC1(Cc2ccc(Cl)cc2)C(=O)Nc2c(Cl)cccc21 (configuration not stated) | inconclusive [inhibitor, single point] | –
4 | COc1ccc(C(=O)n2cnnc2N)cc1 | inactive | –
5 | COc1ccc(-c2onc(C)c2C)cc1S(=O)(=O)N1c2ccccc2CC1C (configuration not stated) | inconclusive [inhibitor, single point] | –
6 | COc1ccccc1C(=O)NCCC(=O)Nc1ncccc1O | inactive | –
7 | C=CCOc1ccc(CN(C)CC(=O)Nc2ccc3c(c2)CCC3)cc1 | inconclusive [inhibitor, single point] | –
8 | COc1ccc(CNC(=O)/C(C#N)=C2\N=C(NC(=O)c3cccs3)c3ccccc32)cc1 | inconclusive [inhibitor, partial curve, poor fit] | –
9 | Cc1cc(C)n(-c2ccc(C(=O)OCC(=O)c3ccc(Br)s3)cc2)n1 | inactive | –
10 | CC(C)(C)c1ccc(C(=O)Nc2cccc(C(=O)N3CCOCC3)c2)cc1 | inconclusive [inhibitor, partial curve] | –
11 | CCOC(=O)Cn1cnc2c(nnn2-c2ccc(F)cc2)c1=O | inactive | –
12 | Cc1cccc(CN2CCC(C(=O)Nc3cccc(-c4cccc(F)c4)c3)CC2)n1 | active: 2.91 µM | –
13 | Cc1ccc(N2CC(C(=O)N3CCC(C(=O)Nc4nnc(C(C)(C)C)s4)CC3)CC2=O)cc1 (configuration not stated) | – | inconclusive: -31.1% [inhibitor]
14 | Cc1cc(C)n2nc(SCc3ncc(-c4ccccc4)o3)nc2n1 | inconclusive [inhibitor, single point] | –
15 | Cc1ccc2nc(-c3cc(NC(=O)c4ccc5c(c4)OCCO5)ccc3Cl)oc2c1 | active: 16.4 µM | –
16 | COc1ccc(NC(=O)Cn2c(=O)sc3ccccc32)c(OC)c1 | inactive | –
17 | CC1CCCC(NC(=O)COC(=O)Cc2ccc(Br)cc2)C1C (configuration not stated) | inactive | –
18 | Cc1c(Cl)cccc1NC(=O)COC(=O)Cc1ccsc1 | inactive | –
19 | Cc1cc(C)c(C#N)c(N2CCN(Cc3ccccc3)CC2)n1 | inconclusive [inhibitor, single point] | –

Row | Compound | Potency | activity change, negative = growth inhibition
20 | CC1=C(NCCc2ccccc2)CCC1=O | active: 20.6 µM | –
21 | CCNc1c(NC(=O)C2CCC(C)CC2)c(=O)oc2ccccc12 (configuration not stated) | inconclusive [inhibitor, single point] | –
22 | Oc1ccc(-c2cnns2)c(O)c1 | active: 4.61 µM | –
23 | CCN1C(=O)[C@H]2[C@@H](c3ccc(-c4ccc(F)cc4)cc3)N[C@@](C)(C(=O)OC)[C@H]2C1=O | active: 20.6 µM | –
24 | CCCCCOc1ccc(NC2=CC(=O)CCC2)cc1 | inconclusive [inhibitor, partial curve] | –
25 | O=C(CN1c2ccccc2Sc2ccccc21)NNC(=O)Nc1ccc(Cl)cc1 | inconclusive [inhibitor, single point] | –
26 | CCOC(=O)N1CCC(n2c(SCC(=O)N3CCC(C)CC3)nc3ccccc3c2=O)CC1 | inconclusive [inhibitor, single point] | –
27 | CCN(CC(=O)Nc1c(F)cccc1F)C(=O)C1=COCCO1 | inactive | –
28 | Cc1ccc(OCC(=O)N/N=C/C=C/c2ccco2)c(Br)c1 | inconclusive [inhibitor, single point] | –
29 | Cc1ccc2c(c1)C(C)CC(C)(C)N2C(=O)CN1CCN(C)CC1 (configuration not stated) | inconclusive [inhibitor, single point] | –
30 | COC(=O)[C@]12CCCCC=C1N(Cc1ccc(Cl)cc1Cl)C(=O)[C@H](CC(=O)NCc1ccccc1)C2 | inconclusive [inhibitor, single point] | –
31 | CCOc1ccc2[nH]c3c(c2c1)CNCC3 | inactive | –
32 | c1ccc2c(c1)ccc1[nH]c3c(c12)CCCC3 | inconclusive [inhibitor, single point] | –
33 | Cc1c(Cl)cccc1NC(=O)CN1CCN(CCN=CC2=C(O)CC(c3ccccc3)CC2=O)CC1 (configuration not stated) | inactive | –
34 | Cc1nc(CNC(=O)C2CCC(=O)N(Cc3cccc(F)c3)C2)sc1C (configuration not stated) | inactive | –
35 | CCc1ccc(OC(C)C(=O)N2CCC(c3nc4ccccc4s3)CC2)cc1 (configuration not stated) | active: 16.4 µM | –
36 | Cc1cnc(C)c(-c2cc(F)cc3c2OC(CNC(=O)CN2CCCC2)C3)n1 (configuration not stated) | inactive | –
37 | c1ccc(CSc2nnc(-c3cccs3)n2Cc2ccco2)cc1 | inconclusive [inhibitor, single point] | –
38 | CCCn1nc(CC(=O)OCC)c2ccccc2c1=O | inactive | –

Row | Compound | Potency | activity change, negative = growth inhibition
39 | Cc1cc(C)cc(NC(=O)CCS(=O)(=O)c2cc3c4c(c2)CCN4C(=O)CC3)c1 | inactive | –
40 | CC(C)COc1ccc(C(=O)Nc2cccc(-c3nc4ccccc4[nH]3)c2)cc1 | active: 20.6 µM | –
41 | CC1(C)C(=O)OC(/C=C/c2cccc([N+](=O)[O-])c2)C(C)(C)C1=O (configuration not stated) | inconclusive [inhibitor, partial curve] | –
42 | COc1ccc(NS(=O)(=O)c2ccc(OCC(=O)N3CCOCC3)cc2)cc1Cl | inconclusive [inhibitor, partial curve] | –
43 | COc1ccc(CN2CCC[C@]3(N[C@H](c4ccc(OC)cc4)[C@@H]4C(=O)N(Cc5ccccc5)C(=O)[C@@H]43)C2=O)cc1 | active: 16.4 µM | –
44 | C=CCn1c(-c2sccc2C)n[nH]c1=S | inconclusive [inhibitor, single point] | –
45 | CN(C)C(=O)c1ccc(-c2ccc3ncnc(N4CCNCC4)c3c2)cc1 | inactive | –
46 | CSc1ncccc1C(=O)N1CCCC(C(=O)c2cc(F)ccc2F)C1 (configuration not stated) | inconclusive [inhibitor, single point] | –
47 | O=C(Oc1ccc(Br)cc1C(=S)N1CCOCC1)c1ccc(F)cc1 | inactive | –
48 | COc1ccc(NC(=O)C2CC(=O)N(CCc3ccc(Cl)cc3)C2)cc1 (configuration not stated) | inconclusive [inhibitor, single point] | –
49 | CCn1cc(C(=O)N2CCN(c3cccc(C(F)(F)F)c3)CC2)c2cc(OC)c(OC)cc2c1=O | active: 23.1 µM | –
50 | COC(=O)c1ccc(NC(=O)N2CCCC(C(=O)c3ccccc3OC)C2)cc1 (configuration not stated) | inconclusive [inhibitor, single point] | –
51 | COc1ccc(Nc2nc(N)nc(CN3CCOCC3)n2)cc1 | inconclusive [inhibitor, single point] | –
52 | O=C(/C=C/c1ccc(F)cc1)N1CC[C@@]2(O)CCCC[C@H]2C1 | inactive | –
53 | CC(C)(C)N1C(=O)c2ccc(C(=O)Nc3ccc(-c4nc5ccccc5[nH]4)cc3)cc2C1=O | inconclusive [inhibitor, full curve] | –
54 | CCCCc1cc(=O)oc2cc(O)ccc12 | inconclusive [inhibitor, partial curve] | –
55 | O=C(NCc1ccccc1CN1CCCC1)c1ccc(S(=O)(=O)Nc2ccccc2)cc1 | active: 13 µM | –
56 | CN1CCN(NC(=O)c2cn(-c3ccccc3)nc2-c2cccc(Br)c2)CC1 | inconclusive [inhibitor, single point] | –
57 | Cc1ccnc(N2CCN(c3cc(C)c(C#N)c4nc5ccccc5n34)CC2)c1 | inconclusive [inhibitor, single point] | –
